Test results as given in US11925638B2, “Pharmaceutical composition comprising diamino heterocyclic carboxamide compound as active ingredient” (ASTELLAS PHARMA INC., priority 2014, dated 2024).

Tested on: PC9 cells stably expressing AXL (PC9/AXL, AXL/PC9)

## C#Cc1cccc(Nc2ncnc3cc(OCCOC)c(OCCOC)cc23)c1 [erlotinib]
4 days, erlotinib alone up to 3000 nM
  inhibition of proliferation: < 50%
Erlotinib alone at maximum concentration of 3000 nM
  survival rate of the cells: 73%
